The structures appear in SMILES notation. Out of some 48,000 compounds screened, about 1,200 (2.5%) were called active. About 2% were inconclusive and are not listed.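 Rule for the calls: active = activation of at least 60% and not above a set upper limit (about 1 call in 100 departs from these limits); inconclusive = activation of 40% to 60%, or above that upper limit; inactive = activation under 40%.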 Some of the results follow.

Experimental findings from PubChem BioAssay AID1346428 (National Center for Advancing Translational Sciences (NCATS), 2018) are described below.

The experiment addresses Probable G-protein coupled receptor 32 (Homo sapiens) (UniProt O75388). In words: qHTS for Agonists of Human Resolvin D1 Receptor DRV1. The settings on record: CHO-K1 GPR32 beta-arrestin PathHunter luminescence, 90 min; at 76.9 µM; stronger effect = higher value; zero percent set by DMSO-only wells. An outline of the steps: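 Beta-arrestin recruitment read-out: luminescence from complemented beta-Gal in CHO-K1 GPR32 PathHunter cells, measured 1 h after detection reagent at ambient temperature following 90 min compound exposure at 37 °C; DMSO served as basal (EC0) control.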
UniProt O75388, sequence (O75388 whole entry, looked up): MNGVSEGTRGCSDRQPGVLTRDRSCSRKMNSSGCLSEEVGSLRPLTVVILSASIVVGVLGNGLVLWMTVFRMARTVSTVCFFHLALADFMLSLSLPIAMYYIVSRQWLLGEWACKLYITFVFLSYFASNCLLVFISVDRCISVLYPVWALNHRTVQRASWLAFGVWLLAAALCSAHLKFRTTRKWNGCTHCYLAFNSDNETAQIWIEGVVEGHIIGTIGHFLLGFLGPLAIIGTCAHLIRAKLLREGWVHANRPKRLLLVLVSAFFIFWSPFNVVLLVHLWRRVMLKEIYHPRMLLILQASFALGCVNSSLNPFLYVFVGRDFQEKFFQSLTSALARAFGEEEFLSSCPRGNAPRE
Turning to `COc1ccc(OC)c(NC(=O)Cn2cnc3sc(C)c(S(=O)(=O)N4CCN(c5ccccc5OC)CC4)c3c2=O)c1`, the activation is inactive: 1.42%.

With `CCOc1ccccc1CNC(=O)C1CCN(C2=NS(=O)(=O)C(c3ccc(C)c(C)c3)=C2C)CC1`, the activation is inactive: -5.04%.

Regarding `COc1ccc(C(=O)N2CCC(c3nc4ccccc4o3)CC2)cc1`, the activation is inactive: 2.43%.

Consider `CCOc1ccc(C(=O)NCCc2csc(-c3ccc(C(F)(F)F)cc3)n2)cc1OCC`, for which the activation was inactive: -14.2%.

Consider `COc1ccc(S(=O)(=O)c2c(Nc3ccc(F)cc3)sc(C(=O)c3ccc(C)cc3C)c2N)cc1`, for which the activation is inactive: -28.5%.

With `COc1ccc(C(=O)Nc2cc(C(C)C)c(O)c(S(=O)(=O)c3ccc(OC)cc3)c2C)cc1`, the activation was inactive: -9.92%.

As to `c1ccc(Cc2nnc(SCc3nc(-c4cccs4)no3)n2-c2ccccc2)cc1`, the activation was inactive: 3.74%.

On to `Cc1ccccc1N1CCN(S(=O)(=O)c2nnc(NC(=O)c3ccccc3)s2)CC1`, for which the activation was inactive: 43.5%.

For `CC(C)c1ccc2oc(-c3cc(NC(=O)c4cccs4)ccc3Cl)nc2c1`, the activation is inactive: -3.01%.

Consider `CS(=O)(=O)CCNCc1ccc(-c2ccc3ncnc(Nc4ccc(OCc5cccc(F)c5)c(Cl)c4)c3c2)o1`, for which the activation was inactive: 9.12%.

Turning to `COc1cccc(NC(=O)c2sc3nc(C)c(C(=O)Nc4ccc(C)cc4C)c(-c4sccc4C)c3c2N)c1`, the activation is inactive: -21.7%.

For `O=c1c2oc3ccccc3c2n(Cc2cccc(F)c2)c(=O)n1Cc1ccco1`, the activation was inactive: -8.76%.

As for `Cc1onc(-c2c(Cl)cccc2Cl)c1C(=O)Cl`, the activation was inactive: 8.71%.

With `Cn1cnnc1SCC(=O)Nc1cc(C(=O)O)cc(C(=O)O)c1`, the activation was inactive: 0.759%.

Consider `COc1ccc(-c2ccc(CNc3ccc4[nH]c(=O)[nH]c4c3)o2)cc1Cl`, for which the activation was inactive: 22%.

For `Cc1nn(CC(=O)NC2CCCCC2)c(=O)c2cc3cc(F)ccc3n12`, the activation is inactive: 0.621%.

Consider `CCc1ccc(Oc2nc3c(C)cccn3c(=O)c2/C=C(\C#N)c2nc3ccccc3[nH]2)cc1`, for which the activation was inactive: 30%.

Take `Nc1ccc(-c2nc3ccc(-c4nc5ccc(N)cc5[nH]4)cc3[nH]2)cc1`: the activation is inactive: 5.72%.

`Cc1cc(=O)n2[nH]c(NCc3ccc(F)cc3)nc2n1`: the activation was inactive: 14%.

For the compound `COc1ccc(S(=O)(=O)c2c(Nc3ccc(C)cc3)sc(C(=O)c3ccc(C)cc3)c2N)cc1`, the activation is inactive: -28.6%.

For the compound `Cc1ccc(-n2nc(C)c3c(C)cc(=O)n(CC(=O)Nc4ccc(Br)cc4F)c32)cc1`, the activation was inactive: 7.49%.

With `Cc1cccc(C(=O)NCC(c2ccc3c(c2)OCO3)N2CCN(c3ccccc3F)CC2)c1` (stereo not drawn), the activation was inactive: -27.7%.

Turning to `COc1cc(-c2noc(CSc3nc(-c4ccccc4)cc(=O)[nH]3)n2)cc(OC)c1OC`, the activation was inactive: -12.9%.

Take `CCOC(=O)CSc1nc2ccc(NC(=O)c3ccc(F)cc3)cc2s1`: the activation is inactive: 40%.

`Cc1ccc(Cl)cc1NC(=O)Nc1c(C)n(C)n(-c2ccccc2)c1=O`: the activation was inactive: -0.788%.

With `O=C(CCCn1c(=O)c2cccn2c2ccc(F)cc21)NCCc1ccccc1`, the activation was inactive: -18.9%.

As to `COc1ccc(-c2noc(-c3ccc(NCc4ccco4)c([N+](=O)[O-])c3)n2)cc1`, the activation is inactive: 45.8%.

As for `Cc1ccc(CSCC(=O)NCc2ccc(F)cc2)cc1`, the activation was inactive: -20.1%.

As for `CCOc1ccccc1Nc1nc(-c2cccc(Cl)c2)c2c(n1)-c1ccccc1OC2`, the activation is inactive: -6.1%.

Turning to `COc1ccc(NC(=O)Cn2cc(S(=O)(=O)c3ccc(C)cc3)c(=O)c3ccccc32)cc1OC`, the activation was inactive: -4.56%.

As for `CCc1nnc(SCC(=O)N(C)c2ccccc2)c2cc3sccc3n12`, the activation was inactive: -18.5%.

As for `CCC(=O)c1ccc(O)cc1`, the activation was inactive: 4.59%.

Turning to `CCOc1ccc(C(=O)Nc2nnc(SCc3cc(=O)c4cc(C)ccc4[nH]3)s2)cc1`, the activation was inactive: 12.1%.

Regarding `Cc1nn(-c2ccccc2)c(OC(=O)c2ccccc2F)c1S(=O)(=O)c1ccccc1`, the activation is inactive: 14.7%.

With `COc1cccc2sc(N(Cc3cccnc3)C(=O)COc3ccccc3)nc12`, the activation is inactive: -4.04%.

For the compound `Cc1sc2c(c1C)c(=O)n(CCc1ccccc1)c(=O)n2Cc1ccccc1Cl`, the activation was inactive: 9.94%.

Regarding `Cc1ccc(C)c(NC(=O)CSc2nc(=O)n(CCN(C)C)c3c2CCC3)c1`, the activation is inactive: -14.8%.

Take `COc1cc(CN(C(=O)c2ccccc2[N+](=O)[O-])c2ccccn2)cc(OC)c1OC`: the activation was inactive: 10.7%.

In the case of `COc1cccc(N2CCN(C(=O)c3cccc(NC(=O)c4nsc5ccccc45)c3)CC2)c1`, the activation was inactive: -14.8%.

Turning to `CCN(CC)S(=O)(=O)c1ccc2c(c1)nc(CN(C)C(=O)c1cccc(Cl)c1)n2C`, the activation was inactive: -6.72%.

On to `COc1ccc(CCNC(=O)C2=C(C)C(=O)OC23CCCCC3)c(OC)c1OC`, for which the activation was inactive: -18.1%.

Regarding `CC1CCN(S(=O)(=O)c2ccc3c(c2)N(CC(=O)NCCCN2CCCCC2C)C(=O)CS3)CC1` (stereo not drawn), the activation was inactive: -12.6%.

In the case of `N#Cc1ccccc1NC(=O)c1cc2c(=O)n3ccccc3nc2s1`, the activation was inactive: 6.11%.

Turning to `CCn1c(=O)c2cc(C(=O)N3CCN(c4cccc(Cl)c4)CC3)sc2c2ccccc21`, the activation is inactive: -3%.

Take `COc1cc(Cl)c(C)cc1NC(=O)c1cc(CN2CCOCC2)on1`: the activation is inactive: -21.2%.

As to `COc1ccc(OC)c(CNC(=O)C2CCN(S(=O)(=O)c3cn(C)cn3)CC2)c1`, the activation is inactive: -11.3%.

`CC1CCCN(Cc2c(O)ccc3c(=O)c(Oc4ccccc4Cl)c(C(F)(F)F)oc23)C1` (stereo not drawn): the activation is inactive: 0.321%.

In the case of `Cc1ccc(S(=O)(=O)c2cn(Cc3ccccc3F)c3cc4c(cc3c2=O)OCO4)cc1`, the activation is inactive: -7.79%.

As for `Cc1cc(NC(=O)c2ccc3c(c2)N(Cc2cccc(Cl)c2)C(=O)c2ccccc2S3=O)ccc1Br` (stereo not drawn), the activation was inactive: -6.01%.

For the compound `CCc1ccccc1NC(=O)Nc1cc(C(=O)NCc2ccc(C(C)C)cc2)ccc1N1CCCC1`, the activation is inactive: -22.8%.

As for `CCc1ccc(NC(=O)CCS(=O)(=O)c2ccc3c(c2)CCN3C(C)=O)cc1`, the activation is inactive: -6.81%.

Take `CCC1CN(S(=O)(=O)c2cc(-c3cc(C)no3)ccc2OC)c2cc(C)ccc2O1` (stereo not drawn): the activation was inactive: -29.5%.

In the case of `COc1ccccc1NC(=O)CCn1cnc2ccccc2c1=O`, the activation was inactive: -10.9%.

In the case of `Cc1ccc(Cl)cc1N1CCN(C(=O)C2CCCN(S(=O)(=O)c3ccc(Br)s3)C2)CC1` (stereo not drawn), the activation was inactive: -2.06%.

For `CN(C(=O)c1cc2c(=O)oc3ccccc3c2s1)c1ccc(F)cc1`, the activation was inactive: -8.31%.

As for `CCOc1ccc(NC(=O)CSc2nccn2-c2cccc(C)c2C)cc1`, the activation was inactive: 22.9%.

`CCOc1ccccc1CNC(=O)c1cc2c(=O)n(Cc3ccccc3)ccc2nc1C`: the activation was inactive: 0%.

Take `CC(=O)N1CCCc2cc(S(=O)(=O)N3CCCCC3)ccc21`: the activation was inactive: 1.85%.

As for `Oc1ccc(Cl)c2cccnc12`, the activation is inactive: -64.3%.

Turning to `Cc1ccc2nc(-c3ccc(Cl)c(NC(=O)c4cccnc4)c3)oc2c1`, the activation is inactive: 5.37%.

With `CCCCn1c2ccc(F)cc2c2nnc(SCCN3CCCCC3)nc21`, the activation was inactive: 2.09%.

In the case of `CCOC(=O)C1CCN(S(=O)(=O)c2cc(-c3onc(C)c3C)ccc2OC)CC1`, the activation was inactive: -0.554%.

As to `Cc1ccc(OCC(=O)NCC(=O)OCc2cc(=O)n3nc(C)sc3n2)cc1`, the activation was inactive: -6.94%.

Consider `O=S(=O)(NCC(c1ccco1)S(=O)(=O)c1cccs1)c1ccc(F)c(C(F)(F)F)c1` (stereo not drawn), for which the activation is inactive: -11.4%.

With `Cc1ccc(CNC(=O)c2nc(SCc3ccc(C)cc3)ncc2Cl)cc1`, the activation is inactive: 3.45%.

Take `COc1ccc(CCNC(=O)CSc2ncc3c(n2)-c2cc(Cl)ccc2N(Cc2ccccc2)S3(=O)=O)cc1OC`: the activation was inactive: 28.4%.

With `COc1ccc(CNC(=O)c2ccc3c(c2)N(Cc2cccc(Cl)c2)C(=O)c2ccccc2S3)c(OC)c1`, the activation is inactive: -16.4%.

`CCc1ccccc1NC(=O)Cn1c(=O)c2cccn2c2ccc(F)cc21`: the activation was inactive: -17.8%.

For `CC(C)c1ccc(NC(=O)CSC2=Nc3ccccc3C3=NC(CC(=O)NCc4ccc(F)cc4)C(=O)N23)cc1` (stereo not drawn), the activation was inactive: 9.42%.

Turning to `COCCCNC(=O)CCn1c(=O)c2ccccc2n(CC(=O)Nc2c(C)cc(C)cc2C)c1=O`, the activation was inactive: 11.2%.

As for `CC(C)c1ccc(OC(=O)c2cc(-c3ccc4c(c3)OCCO4)on2)cc1`, the activation was inactive: -10.2%.

Take `Cc1cccn2c(Nc3ccccc3)c(-c3ccc(N4CCOCC4)cc3)nc12`: the activation was inactive: -32%.

For `Cc1ccc(-n2c(=O)c3cccnc3n2CC(=O)Nc2cccc(C)c2C)cc1`, the activation is inactive: -13.2%.

Consider `Cc1ccccc1-n1c2nc(=O)[nH]c(=O)c-2cc2c(Cl)cccc21`, for which the activation is inactive: 11.8%.

Take `CCOC(=O)c1c(C)[nH]c(C)c1S(=O)(=O)N1CCCC(C(=O)Nc2ccc(OC)c(OC)c2)C1` (stereo not drawn): the activation is inactive: -8.03%.

Turning to `O=c1cc2nc(-c3ccccc3F)nc(SCc3ccc(Br)cc3)n2[nH]1`, the activation is active: 108%.

Consider `Cc1cccc(Cn2c(SCc3ccc(C(=O)NCc4cccs4)cc3)nc3cccnc32)c1`, for which the activation was inactive: -8.34%.

For `Cc1ccc(-n2ccnc(NCCc3ccccc3)c2=O)cc1C`, the activation was inactive: 15.9%.

As to `COc1ccc(NC(=O)CSc2nnc(-c3nonc3NC(C)=O)n2C)cc1Cl`, the activation is inactive: 0.487%.

As for `COCCCN1C(=O)c2[nH]nc(-c3ccccc3O)c2C1c1ccc(OC)cc1` (stereo not drawn), the activation was inactive: -12.5%.

For the compound `COC(=O)c1cc(C)nc2c1c(=O)nc(SCc1cccc(C(F)(F)F)c1)n2C1CC1`, the activation was inactive: -19.9%.

Consider `COc1ccc(Cl)cc1NC(=O)COC(=O)CC(C)(C)CC1=NS(=O)(=O)c2ccccc2N1`, for which the activation was inactive: 36.7%.

As for `Cc1c(Cl)cccc1NC(=O)CCn1cnnn1`, the activation was inactive: -1.25%.
